The whole screen tested about 48,000 compounds, of which about 550 (1.1%) were called active. Not shown: some 4% with an inconclusive outcome. Rule as the data show it: active = potency below about 15 µM; inconclusive = mostly about 16 µM to 33 µM; inactive = weaker than that. This is one part of the list.

Experimental findings from PubChem BioAssay AID360 (National Center for Advancing Translational Sciences (NCATS), 2006) are described below.
Potency is read from the fitted curve at half-maximal effect.

Chain of UniProt P04062 (P04062 whole entry, looked up): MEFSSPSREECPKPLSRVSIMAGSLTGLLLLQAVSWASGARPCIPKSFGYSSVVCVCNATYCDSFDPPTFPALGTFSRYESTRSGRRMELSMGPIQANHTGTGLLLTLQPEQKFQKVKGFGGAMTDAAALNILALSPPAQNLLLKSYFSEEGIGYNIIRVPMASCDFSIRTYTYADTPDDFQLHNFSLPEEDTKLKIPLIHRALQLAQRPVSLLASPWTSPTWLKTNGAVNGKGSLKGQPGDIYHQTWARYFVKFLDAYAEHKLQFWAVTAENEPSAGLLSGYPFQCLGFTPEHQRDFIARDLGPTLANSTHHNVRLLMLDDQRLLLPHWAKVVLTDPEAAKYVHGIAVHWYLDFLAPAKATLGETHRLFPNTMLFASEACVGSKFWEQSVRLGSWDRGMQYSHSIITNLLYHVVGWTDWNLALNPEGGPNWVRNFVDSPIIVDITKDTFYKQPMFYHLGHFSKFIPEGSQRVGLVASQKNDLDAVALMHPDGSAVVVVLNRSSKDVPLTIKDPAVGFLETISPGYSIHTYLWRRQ

The test deals with Lysosomal acid glucosylceramidase (Homo sapiens) (UniProt P04062). Description: Glucocerebrosidase.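 Also: the screen sought inhibitors.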 Conditions: purified enzyme, resorufin glucoside fluorescence (screen aimed at inhibitors), 20 min; series mostly up to 77 µM. The essentials:
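Normal human glucocerebrosidase (0.2 nM final) was assayed with resorufin β-D-glucopyranoside (30 uM final) in 50mM citric acid/KH2PO4, 10mM sodium taurocholate, 0.01% tween-20, pH 5.9. Compounds were titrated; fluorescence (Ex 548, Em 600) read after 20 min at RT.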
In the case of `C=CCn1cc(C(=O)NCCCOCC)c(=O)c2cc(S(=O)(=O)N(CC)CC)ccc21`, the Potency is inactive: > 76.9 µM.
The result for `O=C(CCn1c(=S)oc2ccccc21)Nc1ccc2c(c1)OCCO2` reads inactive: > 76.9 µM.
With `CCOc1ccc(-c2cc3nc(C4CCN(C(=O)OC(C)(C)C)CC4)c(C(=O)O)cn3n2)cc1`, the Potency is inactive: > 76.9 µM.
Then `CCOC(=O)C1CCN(C(=O)N2CCOCC2)CC1`, with inactive: > 76.9 µM; and `COc1ccc(-c2nc(C#N)c(NCc3ccc(F)cc3)o2)cc1OC`, with inactive: > 76.9 µM; and `Cc1noc(C)c1COC(=O)c1cc(=O)[nH]c2ccccc12`, with inactive: > 76.9 µM.
Take `COc1ccc(N(CC(=O)NCc2ccccc2)S(=O)(=O)c2c(C)noc2C)cc1`: the Potency is inactive: > 76.9 µM.
The result for `CC1CCCCN1C(=O)CSc1nc(-c2ccccc2)cc(=O)[nH]1` (stereo unspecified) reads inactive: > 76.9 µM.
Then `O=C(NCc1ccccc1)C(c1cccnc1)N(Cc1ccco1)C(=O)c1ccccn1` (stereo unspecified), with inactive: > 76.9 µM; and `Cc1nnc(SCc2ccccc2C#N)n1-c1ccccc1`, with “inactive”.
Then `N#CC1=C2SCC(O)(c3ccccc3)N2C(=O)CC1c1cccs1` (stereo unspecified), with inactive: > 76.9 µM.
Regarding `O=c1ccccn1Cc1ccccc1F`, the Potency is inactive: > 76.9 µM.
Then `CN(C)S(=O)(=O)c1cccc(-c2cn3ccccc3n2)c1`, with inactive: > 76.9 µM; and `O=c1c2cnn(-c3ccccc3)c2nnn1Cc1ccccn1`, with inactive: > 76.9 µM.
As for `Cc1ccc(S(=O)(=O)N2CCN(C(=O)CSc3nc4ccccc4c(=O)[nH]3)CC2)c(C)c1`, the Potency is inactive: > 76.9 µM.
Then `O=C(NCCN1CCOCC1)c1ccc(CS(=O)(=O)Cc2ccccc2F)o1`, with inactive: > 76.9 µM.
Regarding `O=C(COC(=O)c1ccccn1)Nc1cccc(Cl)c1Cl`, the Potency was inactive: > 76.9 µM.
Then `O=C(NCCC1=CCCCC1)C1CCN(S(=O)(=O)N2CCOCC2)CC1`, with inactive: > 76.9 µM.
Then `O=C(O)CCC(=O)N(Cc1cccnc1)Cc1cccc(F)c1`, with inactive: > 76.9 µM.
Consider `Cc1cc(C)c2c(-n3cccc3)c(C(=O)O)sc2n1`, for which the Potency was inactive: > 76.9 µM.
As to `O=C(Oc1ccccc1)c1ccc(-n2cnnn2)cc1`, the Potency was inactive: > 76.9 µM.
The result for `O=C(CN(Cc1ccco1)C(=O)CNS(=O)(=O)c1ccc(F)cc1)NCc1ccc(F)cc1` reads inactive: > 76.9 µM; that for `C/C(=C(\C#N)C(=O)NCCN1CCOCC1)N(C)C`, inactive: > 76.9 µM.
For the compound `CCOC(=O)c1cc(C)n(CCc2ccccc2)c1C`, the Potency is inactive: > 76.9 µM.
Then `C=CCSc1ncccc1C(=O)O`, with inactive: > 76.9 µM; and `CC(=O)C1=C(C)Nc2ncnn2C1c1ccc(Cl)cc1Cl` (stereo unspecified), with inactive: > 76.9 µM; and `Cc1c(OCC(=O)OC(C)(C)C)ccc2c3c(c(=O)oc12)CCC3`, with inactive: > 76.9 µM.
Then `O=C(COC(=O)C1c2ccccc2Oc2ccccc21)NC1CCS(=O)(=O)C1` (stereo unspecified), with inactive: > 76.9 µM.
Then `Cc1ccc(OCc2nc(C#N)c(N3CCCC3)o2)cc1`, with inactive: > 76.9 µM; and `CC(=O)Nc1ccc(S(=O)(=O)N2CCN(CC(=O)NC3CCCC3)CC2)cc1`, with inactive: > 76.9 µM.
As to `C=CCNc1nc2c(c(=O)[nH]c(=O)n2C)n1CCCCC`, the Potency was inactive: > 76.9 µM.
Then `CCc1cccc(C)c1NC(=O)C1C2CCC(O2)C1C(=O)O` (stereo unspecified), with inactive: > 76.9 µM; and `COC(=O)c1ccc(NC(=O)c2ccccc2N(C)S(C)(=O)=O)cc1`, with inactive: > 76.9 µM; and `O=C1NC2(CCCC2)N=C1c1ccc(Cl)cc1`, with inactive: > 76.9 µM.
Then `O=C(CC(C(=O)O)C1CCCO1)NCCc1ccc2c(c1)OCO2` (stereo unspecified), with inactive: > 76.9 µM; and `COC(=O)CNC(=O)c1c(-c2ccccc2Cl)noc1C`, with inactive: > 76.9 µM; and `COC(=O)c1ccc(-c2nc3ccc(C)cc3o2)cc1`, with inactive: > 76.9 µM.
As to `CCN(CC(=O)NC1CCS(=O)(=O)C1)C(=O)C(c1ccccc1)c1ccccc1` (stereo unspecified), the Potency was inactive: > 76.9 µM.
The result for `CCOC(=O)C1C2C=CC3(CN(C4CCCC4)C(=O)C13)O2` (stereo unspecified) reads inactive: > 76.9 µM.
For the compound `COc1ccc(NC(=O)C2CCN(C(=O)NC3CCCCC3)CC2)c(OC)c1`, the Potency is inactive: > 76.9 µM.
The result for `COc1ccc(C)cc1-n1nnnc1SCC(=O)c1ccc2c(c1)OCCO2` reads inactive: > 76.9 µM.
The result for `COc1cc(CN2CCC(C(=O)N3CCCC(C)C3)CC2)cc(Br)c1O` (stereo unspecified) reads inactive: > 76.9 µM; that for `CC(=O)c1nn(-c2cccc(Cl)c2)cc1C(=O)c1ccco1`, inactive: > 76.9 µM.
Then `CCOC(=O)N1CCN(C(=O)CN(C)S(=O)(=O)c2ccc(OC)c(OC)c2)CC1`, with inactive: > 76.9 µM; and `CCn1c(SCC(=O)N2CCN(c3ccc(F)cc3)CC2)nc2ccccc2c1=O`, with inactive: > 76.9 µM; and `CC(C)OC(=O)CCC1(C(=O)O)CCC(=O)NC1` (stereo unspecified), with inactive: > 76.9 µM.
`O=C1CC(C(=O)NCc2ccccc2)C2(CCCC2)O1` (stereo unspecified): the Potency is inactive: > 76.9 µM.
For `CCOC(=O)c1ccccc1NS(=O)(=O)c1ccc(S(=O)(=O)N2CCCC2)cc1`, the Potency is inactive: > 76.9 µM.
On to `CCCn1nnc2sc3c(c2c1=O)CCC(C)C3` (stereo unspecified), for which the Potency was inactive: > 76.9 µM.
The result for `COc1ccc(F)cc1S(=O)(=O)NC1CC(C)(C)NC(C)(C)C1` reads inactive: > 76.9 µM; that for `O=C(c1n[nH]c(=O)c2ccccc12)N1CCN(c2ccccc2)CC1`, inactive: > 76.9 µM.
Then `CCC(=O)N/C=C/n1cnc2cc(C(F)(F)F)ccc21`, with inactive: > 76.9 µM; and `CCN(CC)CCN1C(=O)c2oc3ccccc3c(=O)c2C1c1ccc(C)cc1` (stereo unspecified), with inactive: > 76.9 µM; and `CCn1cc(-c2cc(C(F)(F)F)n3nc(C(=O)O)cc3n2)c(C)n1`, with inactive: > 76.9 µM.
The result for `O=C(NCc1ccco1)C1CCN(S(=O)(=O)c2ccc(-n3cnnn3)cc2)CC1` reads inactive: > 76.9 µM; that for `COc1ccccc1C1=NOC(Cn2c(=O)c3c(ncn3C)n(C)c2=O)C1` (stereo unspecified), inactive: > 76.9 µM.
On to `CCN(c1c(C)n(C)n(-c2ccccc2)c1=O)S(C)(=O)=O`, for which the Potency is inactive: > 76.9 µM.
Then `C=CCN(CC=C)C(=O)CN1C(=O)c2ccccc2C1=O`, with inactive: > 76.9 µM; and `CCOc1ccc(NC(=O)N2CCN(CC)CC2)cc1`, with active: 11.1 µM.
As to `CC(C)(C)OC(=O)N[C@@H](Cc1ccccc1)c1nnc(S(=O)(=O)Cc2cccc(F)c2)o1`, the Potency was active: 14.8 µM.
The result for `CCOC(=O)c1c(C)[nH]c(C(=O)O)c1C` reads inactive: > 76.9 µM; that for `Cc1nc(CC(=O)N2CCN(c3cccc(C)c3C)CC2)cs1`, inactive: > 76.9 µM; that for `Cc1ccc2nc3c(cc(C#N)c(=O)n3-c3nccs3)c(=O)n2c1`, inactive: > 76.9 µM.
For `CCCN1CCN(C(=O)CN2C(=O)CC(C)(C)S(=O)(=O)c3ccccc32)CC1`, the Potency entry is “inactive”.
Then `COc1ccc(Cl)cc1NC(=O)N1CCN(S(C)(=O)=O)CC1`, with inactive: > 76.9 µM; and `COc1ccc2[nH]c(=O)c(CN(CCCN(C)C)C(=O)Nc3ccc(F)cc3)cc2c1`, with inactive: > 76.9 µM.
Then `CCOc1ccccc1-n1c(SCC(=O)Nc2nccs2)nnc1-c1ccoc1C`, with inactive: > 76.9 µM; and `COCCn1c(Sc2ccccc2)nc2c1c(=O)[nH]c(=O)n2C`, with inactive: > 76.9 µM; and `Cn1c(=O)n(CCCOc2ccc(Br)cc2)c2ccccc21`, with inactive: > 76.9 µM.
The result for `COc1ccccc1OCc1ccc(C(=O)n2nc(C)c(Cl)c2C)o1` reads inactive: > 76.9 µM.
As for `CCCCC(=O)Nc1nn(CCC)c2nc3ccccc3cc12`, the Potency is inactive: > 76.9 µM.
Turning to `Fc1ccc2nc3[nH]c4ccccc4c3nc2c1`, the Potency is inactive: > 76.9 µM.
The result for `CC(C)(C)NC(=O)NC(=O)Cn1cc(C(F)(F)F)ccc1=O` reads inactive: > 76.9 µM.
The result for `C/C(NCc1cccnc1)=C(\C#N)C(=O)NCc1ccccc1` reads inactive: > 76.9 µM.
Then `O=S(=O)(c1cccc(-c2cn3cccnc3n2)c1)N1CCCCCC1`, with “inactive”.
Take `Cc1onc(-c2ccccc2Cl)c1C(=O)OCC(=O)Nc1ccc2c(c1)OCO2`: the Potency was inactive: > 76.9 µM.
The result for `CC(C)Cn1c(SCC(=O)NC2CCCc3ccccc32)nc(O)cc1=O` (stereo unspecified) reads inactive: > 76.9 µM.
For the compound `CCn1cc(C(=O)N2CCc3ccccc32)c(=O)c2cc(S(=O)(=O)N3CCOCC3)ccc21`, the Potency is inactive: > 76.9 µM.
Turning to `O=C(CSc1nnc([C@@H]2CCCN2)o1)c1ccc(Cl)cc1`, the Potency was inactive: > 76.9 µM.
Then `Cc1cc(NC(=O)CSc2nc(-c3ccc(F)cc3)cs2)no1`, with inactive: > 76.9 µM.
The result for `Cc1cc(C)n2nc(C(=O)Nc3ccc4c(c3)OCO4)nc2n1` reads inactive: > 76.9 µM.
Then `COc1cc(CC(=O)OC2CCOC2=O)cc(OC)c1OC` (stereo unspecified), with inactive: > 76.9 µM.
For `COCCNC(=O)C1CC(=O)N(CCc2ccccc2)C1` (stereo unspecified), the Potency is inactive: > 76.9 µM.
Then `Cc1ccc(C)c(CN2CCCNC2=O)c1`, with inactive: > 76.9 µM; and `COc1cc(C(=O)N2CCCC(c3nc(-c4cccs4)no3)C2)cc(OC)c1OC` (stereo unspecified), with inactive: > 76.9 µM.
Then `C/C=C/C=[N+](\[O-])C(C)/C(=N/O)c1ccc(F)cc1` (stereo unspecified), with inactive: > 76.9 µM; and `COc1ccc(OC)c(NC(=O)CSc2nnc(CCCO)n2-c2ccccc2)c1`, with inactive: > 76.9 µM; and `O=C1CCC(C(=O)NC2(C(=O)NC3CCCCC3)CCCCC2)N1` (stereo unspecified), with inactive: > 76.9 µM.
Take `COc1ccc(OC)c(NC(=O)CSc2nnc(C)n2Cc2ccccc2)c1`: the Potency is inactive: > 76.9 µM.
Then `CCC(=O)c1ccc(OCC(=O)O)cc1`, with inactive: > 76.9 µM; and `CCOc1ccc(NS(=O)(=O)c2ccc3[nH]cc(C(=O)NCC4CCCO4)c(=O)c3c2)cc1` (stereo unspecified), with inactive: > 76.9 µM.
